Measured values from the supplement of paper PMC8728848.
The list shows a part of the results.

Tests used:
Experiment in all cases: glycan array binding signal (z-score within array); higher = stronger binding
Details in all cases: glycan notation: IUPAC condensed, linker removed; mutation: H59Q
[1] = molecular target: Fuc(a1-2)Gal6S(b1-3)GlcNAc
How it was run: (§1)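 From the Consortium for Functional Glycomics database, 3228 arrays were curated, keeping only those whose protein sequence was available. Binding is given as a within-array Z-score averaged across arrays sharing a protein sequence and across linkers. Negative Z-scores can be read as non-binding.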

[2] = molecular target: Fuc(a1-2)Gal6S(b1-3)GlcNAc6S
How it was run: as §1

Fuc(a1-2)Gal6S(b1-4)Glc = molecular target: Fuc(a1-2)Gal6S(b1-4)Glc
How it was run: as §1

[3] = molecular target: Fuc(a1-2)Gal6S(b1-4)Glc6S
How it was run: as §1

Fuc(a1-2)[Gal(a1-3)]Gal = molecular target: Fuc(a1-2)[Gal(a1-3)]Gal
How it was run: as §1

[4] = molecular target: Fuc(a1-2)[Gal(a1-3)]Gal(b1-3)GalNAc
How it was run: as §1

[5] = molecular target: Fuc(a1-2)[Gal(a1-3)]Gal(b1-3)GalNAc(b1-3)Gal(a1-4)Gal(b1-4)Glc
How it was run: as §1

[6] = molecular target: Fuc(a1-2)[Gal(a1-3)]Gal(b1-3)GlcNAc
How it was run: as §1

[7] = molecular target: Fuc(a1-2)[Gal(a1-3)]Gal(b1-3)GlcNAc(b1-2)Man(a1-3)[Fuc(a1-2)[Gal(a1-3)]Gal(b1-3)GlcNAc(b1-2)Man(a1-6)]Man(b1-4)GlcNAc(b1-4)GlcNAc
How it was run: as §1

[8] = molecular target: Fuc(a1-2)[Gal(a1-3)]Gal(b1-3)GlcNAc(b1-2)Man(a1-3)[Fuc(a1-2)[Gal(a1-3)]Gal(b1-3)GlcNAc(b1-2)Man(a1-6)]Man(b1-4)GlcNAc(b1-4)[Fuc(a1-6)]GlcNAc
How it was run: as §1

[9] = molecular target: Fuc(a1-2)[Gal(a1-3)]Gal(b1-3)GlcNAc(b1-3)GalNAc
How it was run: as §1

[10] = molecular target: Fuc(a1-2)[Gal(a1-3)]Gal(b1-3)GlcNAc(b1-6)GalNAc
How it was run: as §1

[11] = molecular target: Fuc(a1-2)[Gal(a1-3)]Gal(b1-4)Glc
How it was run: as §1

[12] = molecular target: Fuc(a1-2)[Gal(a1-3)]Gal(b1-4)GlcNAc
How it was run: as §1

[13] = molecular target: Fuc(a1-2)[Gal(a1-3)]Gal(b1-4)GlcNAc(b1-2)Man
How it was run: as §1

[14] = molecular target: Fuc(a1-2)[Gal(a1-3)]Gal(b1-4)GlcNAc(b1-2)Man(a1-3)[Fuc(a1-2)[Gal(a1-3)]Gal(b1-4)GlcNAc(b1-2)Man(a1-6)]Man(b1-4)GlcNAc(b1-4)GlcNAc
How it was run: as §1

[15] = molecular target: Fuc(a1-2)[Gal(a1-3)]Gal(b1-4)GlcNAc(b1-2)Man(a1-3)[Fuc(a1-2)[Gal(a1-3)]Gal(b1-4)GlcNAc(b1-2)Man(a1-6)]Man(b1-4)GlcNAc(b1-4)[Fuc(a1-6)]GlcNAc
How it was run: as §1

[16] = molecular target: Fuc(a1-2)[Gal(a1-3)]Gal(b1-4)GlcNAc(b1-3)GalNAc
How it was run: as §1

[17] = molecular target: Fuc(a1-2)[Gal(a1-3)]Gal(b1-4)GlcNAc(b1-3)[Fuc(a1-2)[Gal(a1-3)]Gal(b1-4)GlcNAc(b1-6)]GalNAc
How it was run: as §1

[18] = molecular target: Fuc(a1-2)[Gal(a1-3)]Gal(b1-4)GlcNAc(b1-6)GalNAc
How it was run: as §1

[19] = molecular target: Fuc(a1-2)[Gal(a1-3)]Gal(b1-4)[Fuc(a1-3)]Glc
How it was run: as §1

[20] = molecular target: Fuc(a1-2)[Gal(a1-3)]Gal(b1-4)[Fuc(a1-3)]GlcNAc
How it was run: as §1

[21] = molecular target: Fuc(a1-2)[Gal(a1-3)]Gal(b1-4)[Fuc(a1-3)]GlcNAc(b1-3)GalNAc
How it was run: as §1

[22] = molecular target: Fuc(a1-2)[Gal(a1-4)]Gal(b1-4)GlcNAc
How it was run: as §1

[23] = molecular target: Fuc(a1-2)[GalNAc(a1-3)]Gal
How it was run: as §1

[24] = molecular target: Fuc(a1-2)[GalNAc(a1-3)]Gal(b1-3)GalNAc(a1-3)[Fuc(a1-2)]Gal(b1-4)GlcNAc
How it was run: as §1

[25] = molecular target: Fuc(a1-2)[GalNAc(a1-3)]Gal(b1-3)GalNAc(b1-3)Gal(a1-4)Gal(b1-4)Glc
How it was run: as §1

[26] = molecular target: Fuc(a1-2)[GalNAc(a1-3)]Gal(b1-3)GlcNAc
How it was run: as §1

[27] = molecular target: Fuc(a1-2)[GalNAc(a1-3)]Gal(b1-3)GlcNAc(b1-2)Man(a1-3)[Fuc(a1-2)[GalNAc(a1-3)]Gal(b1-3)GlcNAc(b1-2)Man(a1-6)]Man(b1-4)GlcNAc(b1-4)GlcNAc
How it was run: as §1

[28] = molecular target: Fuc(a1-2)[GalNAc(a1-3)]Gal(b1-3)GlcNAc(b1-2)Man(a1-3)[Fuc(a1-2)[GalNAc(a1-3)]Gal(b1-3)GlcNAc(b1-2)Man(a1-6)]Man(b1-4)GlcNAc(b1-4)[Fuc(a1-6)]GlcNAc
How it was run: as §1

[29] = molecular target: Fuc(a1-2)[GalNAc(a1-3)]Gal(b1-3)GlcNAc(b1-3)GalNAc
How it was run: as §1

[30] = molecular target: Fuc(a1-2)[GalNAc(a1-3)]Gal(b1-3)GlcNAc(b1-6)GalNAc
How it was run: as §1

[31] = molecular target: Fuc(a1-2)[GalNAc(a1-3)]Gal(b1-4)Glc
How it was run: as §1

[32] = molecular target: Fuc(a1-2)[GalNAc(a1-3)]Gal(b1-4)GlcNAc
How it was run: as §1

[33] = molecular target: Fuc(a1-2)[GalNAc(a1-3)]Gal(b1-4)GlcNAc(b1-2)Man
How it was run: as §1

[34] = molecular target: Fuc(a1-2)[GalNAc(a1-3)]Gal(b1-4)GlcNAc(b1-2)Man(a1-3)[Fuc(a1-2)[GalNAc(a1-3)]Gal(b1-4)GlcNAc(b1-2)Man(a1-6)]Man(b1-4)GlcNAc(b1-4)GlcNAc
How it was run: as §1

[35] = molecular target: Fuc(a1-2)[GalNAc(a1-3)]Gal(b1-4)GlcNAc(b1-2)Man(a1-3)[Fuc(a1-2)[GalNAc(a1-3)]Gal(b1-4)GlcNAc(b1-2)Man(a1-6)]Man(b1-4)GlcNAc(b1-4)[Fuc(a1-6)]GlcNAc
How it was run: as §1

[36] = molecular target: Fuc(a1-2)[GalNAc(a1-3)]Gal(b1-4)GlcNAc(b1-3)Gal(b1-4)GlcNAc
How it was run: as §1

[37] = molecular target: Fuc(a1-2)[GalNAc(a1-3)]Gal(b1-4)GlcNAc(b1-3)Gal(b1-4)GlcNAc(b1-3)Gal(b1-4)GlcNAc
How it was run: as §1

[38] = molecular target: Fuc(a1-2)[GalNAc(a1-3)]Gal(b1-4)GlcNAc(b1-3)GalNAc
How it was run: as §1

[39] = molecular target: Fuc(a1-2)[GalNAc(a1-3)]Gal(b1-4)GlcNAc(b1-3)[Fuc(a1-2)[GalNAc(a1-3)]Gal(b1-4)GlcNAc(b1-6)]GalNAc
How it was run: as §1

[40] = molecular target: Fuc(a1-2)[GalNAc(a1-3)]Gal(b1-4)GlcNAc(b1-6)GalNAc
How it was run: as §1

[41] = molecular target: Fuc(a1-2)[GalNAc(a1-3)]Gal(b1-4)[Fuc(a1-3)]GlcNAc
How it was run: as §1

[42] = molecular target: Fuc(a1-2)[GalNAc(a1-3)]Gal(b1-4)[Fuc(a1-3)]GlcNAc(b1-3)GalNAc
How it was run: as §1

[43] = molecular target: Fuc(a1-2)[GalNAc(a1-4)]Gal(b1-4)GlcNAc
How it was run: as §1

B1: rAAL-H59Q (Agrocybe aegerita), Q6WY08 (protein)
chain: MQGVNIYNISAGTSVDLAAPVTTGDIVTFFSSALNLNAGAGNPNNTTLNLFAENGAYLLQIAFRLQENVIIFNSRQPDGPWLVEQRVSDVANQFAGIDGKAMVTVFDHGDKYQVVINEKTVIQYTKQISGLTLSLSYNATEETSIFSTVVEAVTYTGLALEHHHHHH
glycan array binding signal (z-score) [1]: -0.097
glycan array binding signal (z-score) [2]: -0.013
glycan array binding signal (z-score) (Fuc(a1-2)Gal6S(b1-4)Glc): -0.152
glycan array binding signal (z-score) [3]: -0.148
glycan array binding signal (z-score) (Fuc(a1-2)[Gal(a1-3)]Gal): -0.072
glycan array binding signal (z-score) [4]: -0.077
glycan array binding signal (z-score) [5]: -0.053
glycan array binding signal (z-score) [6]: -0.115
glycan array binding signal (z-score) [7]: -0.124
glycan array binding signal (z-score) [8]: -0.071
glycan array binding signal (z-score) [9]: -0.106
glycan array binding signal (z-score) [10]: -0.1
glycan array binding signal (z-score) [11]: -0.071
glycan array binding signal (z-score) [12]: -0.026
glycan array binding signal (z-score) [13]: -0.082
glycan array binding signal (z-score) [14]: -0.078
glycan array binding signal (z-score) [15]: -0.055
glycan array binding signal (z-score) [16]: -0.147
glycan array binding signal (z-score) [17]: -0.041
glycan array binding signal (z-score) [18]: -0.106
glycan array binding signal (z-score) [19]: -0.097
glycan array binding signal (z-score) [20]: -0.06
glycan array binding signal (z-score) [21]: -0.061
glycan array binding signal (z-score) [22]: -0.044
glycan array binding signal (z-score) [23]: -0.123
glycan array binding signal (z-score) [24]: -0.015
glycan array binding signal (z-score) [25]: -0.088
glycan array binding signal (z-score) [26]: -0.017
glycan array binding signal (z-score) [27]: -0.063
glycan array binding signal (z-score) [28]: -0.106
glycan array binding signal (z-score) [29]: -0.035
glycan array binding signal (z-score) [30]: -0.176
glycan array binding signal (z-score) [31]: -0.116
glycan array binding signal (z-score) [32]: -0.081
glycan array binding signal (z-score) [33]: -0.136
glycan array binding signal (z-score) [34]: -0.084
glycan array binding signal (z-score) [35]: -0.055
glycan array binding signal (z-score) [36]: -0.098
glycan array binding signal (z-score) [37]: -0.053
glycan array binding signal (z-score) [38]: -0.084
glycan array binding signal (z-score) [39]: -0.096
glycan array binding signal (z-score) [40]: -0.124
glycan array binding signal (z-score) [41]: -0.058
glycan array binding signal (z-score) [42]: -0.027
glycan array binding signal (z-score) [43]: -0.064
